# Laboratory results taken from the supplement of paper PMC8728848.
# The other results are listed elsewhere or left out.
# B1: AAA (Anguilla anguilla), Q7SIC1 (protein)
# chain: VIPEGYTQENVAVRGKATQSAQLRGEHAANSEASNAIDGNRDSNFYHGSCTHSSGQANPWWRVDLLQVYTITSVTITNRGDCCGERISGAEINIGQHLASNGVNNPECSVIGSMATGETKTFHCPAPMIGRYVVTYLPTSESLHLCEVEVNVDKPAAA
# How the values were obtained:
# Assay in all cases: glycan array binding signal (z-score within array); higher = stronger binding
# Conditions in all cases: glycan notation: IUPAC condensed, linker removed
# [1] = target: Fuc(a1-2)Gal(b1-4)GlcNAc(b1-3)Gal(b1-4)GlcNAc
# Outline: (§1)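 Glycan array binding is given as a within-array Z-score, which can be read as non-binding when negative. The arrays, 3228 of them, came from the Consortium for Functional Glycomics database and were retained only where the protein sequence was available. Z-scores were averaged across arrays of the same protein sequence at different concentrations or buffers and across linkers.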
# [2] = target: Fuc(a1-2)Gal(b1-4)GlcNAc(b1-3)Gal(b1-4)GlcNAc(b1-2)Man(a1-3)[Fuc(a1-2)Gal(b1-4)GlcNAc(b1-3)Gal(b1-4)GlcNAc(b1-2)Man(a1-6)]Man(b1-4)GlcNAc(b1-4)GlcNAc
# Outline: as §1
# [3] = target: Fuc(a1-2)Gal(b1-4)GlcNAc(b1-3)Gal(b1-4)GlcNAc(b1-3)Gal(b1-4)GlcNAc
# Outline: as §1
# [4] = target: Fuc(a1-2)Gal(b1-4)GlcNAc(b1-3)GalNAc
# Outline: as §1
# [5] = target: Fuc(a1-2)Gal(b1-4)GlcNAc(b1-3)[Fuc(a1-2)Gal(b1-4)GlcNAc(b1-6)]GalNAc
# Outline: as §1
# [6] = target: Fuc(a1-2)Gal(b1-4)GlcNAc(b1-3)[Fuc(a1-3)[Gal(b1-4)]GlcNAc(b1-6)]Gal(b1-4)Glc
# Outline: as §1
# [7] = target: Fuc(a1-2)Gal(b1-4)GlcNAc(b1-6)GalNAc
# Outline: as §1
# [8] = target: Fuc(a1-2)Gal(b1-4)GlcNAc6S
# Outline: as §1
# [9] = target: Fuc(a1-2)Gal(b1-4)[Fuc(a1-3)]GalNAc(b1-3)Gal(b1-4)[Fuc(a1-3)]GlcNAc
# Outline: as §1
# [10] = target: Fuc(a1-2)Gal(b1-4)[Fuc(a1-3)]GalNAc(b1-3)Gal(b1-4)[Fuc(a1-3)]GlcNAc(b1-3)Gal(b1-4)[Fuc(a1-3)]GalNAc
# Outline: as §1
# [11] = target: Fuc(a1-2)Gal(b1-4)[Fuc(a1-3)]GlcNAc
# Outline: as §1
# [12] = target: Fuc(a1-2)Gal(b1-4)[Fuc(a1-3)]GlcNAc(b1-2)Man(a1-3)[Fuc(a1-2)Gal(b1-4)[Fuc(a1-3)]GlcNAc(b1-2)Man(a1-6)]Man(b1-4)GlcNAc(b1-4)[Fuc(a1-6)]GlcNAc
# Outline: as §1
# [13] = target: Fuc(a1-2)Gal(b1-4)[Fuc(a1-3)]GlcNAc(b1-2)[Fuc(a1-2)Gal(b1-4)[Fuc(a1-3)]GlcNAc(b1-4)]Man(a1-3)[Fuc(a1-2)Gal(b1-4)[Fuc(a1-3)]GlcNAc(b1-2)Man(a1-6)]Man(b1-4)GlcNAc(b1-4)GlcNAc
# Outline: as §1
# [14] = target: Fuc(a1-2)Gal(b1-4)[Fuc(a1-3)]GlcNAc(b1-3)Gal(b1-4)[Fuc(a1-3)]GlcNAc
# Outline: as §1
# [15] = target: Fuc(a1-2)Gal(b1-4)[Fuc(a1-3)]GlcNAc(b1-3)Gal(b1-4)[Fuc(a1-3)]GlcNAc(b1-3)Gal(b1-4)[Fuc(a1-3)]GlcNAc
# Outline: as §1
# [16] = target: Fuc(a1-2)Gal(b1-4)[Fuc(a1-3)]GlcNAc(b1-3)GalNAc
# Outline: as §1
# [17] = target: Fuc(a1-2)Gal(b1-4)[Fuc(a1-3)]GlcNAc(b1-3)[Neu5Ac(a2-6)Gal(b1-4)GlcNAc(b1-6)]Gal(b1-4)Glc
# Outline: as §1
# [18] = target: Fuc(a1-2)Gal3S(b1-4)GlcNAc
# Outline: as §1
# [19] = target: Fuc(a1-2)Gal6S(b1-3)GlcNAc
# Outline: as §1
# [20] = target: Fuc(a1-2)Gal6S(b1-3)GlcNAc6S
# Outline: as §1
# Fuc(a1-2)Gal6S(b1-4)Glc = target: Fuc(a1-2)Gal6S(b1-4)Glc
# Outline: as §1
# [21] = target: Fuc(a1-2)Gal6S(b1-4)Glc6S
# Outline: as §1
# [22] = target: Fuc(a1-2)Gal6S(b1-4)GlcNAc
# Outline: as §1
# Fuc(a1-2)GlcNAc = target: Fuc(a1-2)GlcNAc
# Outline: as §1
# Fuc(a1-2)[Gal(a1-3)]Gal = target: Fuc(a1-2)[Gal(a1-3)]Gal
# Outline: as §1
# [23] = target: Fuc(a1-2)[Gal(a1-3)]Gal(b1-3)GalNAc
# Outline: as §1
# [24] = target: Fuc(a1-2)[Gal(a1-3)]Gal(b1-3)GalNAc(b1-3)Gal(a1-4)Gal(b1-4)Glc
# Outline: as §1
# [25] = target: Fuc(a1-2)[Gal(a1-3)]Gal(b1-3)GlcNAc
# Outline: as §1
# [26] = target: Fuc(a1-2)[Gal(a1-3)]Gal(b1-3)GlcNAc(b1-2)Man(a1-3)[Fuc(a1-2)[Gal(a1-3)]Gal(b1-3)GlcNAc(b1-2)Man(a1-6)]Man(b1-4)GlcNAc(b1-4)GlcNAc
# Outline: as §1
# [27] = target: Fuc(a1-2)[Gal(a1-3)]Gal(b1-3)GlcNAc(b1-2)Man(a1-3)[Fuc(a1-2)[Gal(a1-3)]Gal(b1-3)GlcNAc(b1-2)Man(a1-6)]Man(b1-4)GlcNAc(b1-4)[Fuc(a1-6)]GlcNAc
# Outline: as §1
# [28] = target: Fuc(a1-2)[Gal(a1-3)]Gal(b1-3)GlcNAc(b1-3)GalNAc
# Outline: as §1
# [29] = target: Fuc(a1-2)[Gal(a1-3)]Gal(b1-3)GlcNAc(b1-6)GalNAc
# Outline: as §1
# [30] = target: Fuc(a1-2)[Gal(a1-3)]Gal(b1-4)Glc
# Outline: as §1
# [31] = target: Fuc(a1-2)[Gal(a1-3)]Gal(b1-4)GlcNAc
# Outline: as §1
# [32] = target: Fuc(a1-2)[Gal(a1-3)]Gal(b1-4)GlcNAc(b1-2)Man
# Outline: as §1
# [33] = target: Fuc(a1-2)[Gal(a1-3)]Gal(b1-4)GlcNAc(b1-2)Man(a1-3)[Fuc(a1-2)[Gal(a1-3)]Gal(b1-4)GlcNAc(b1-2)Man(a1-6)]Man(b1-4)GlcNAc(b1-4)GlcNAc
# Outline: as §1
# [34] = target: Fuc(a1-2)[Gal(a1-3)]Gal(b1-4)GlcNAc(b1-2)Man(a1-3)[Fuc(a1-2)[Gal(a1-3)]Gal(b1-4)GlcNAc(b1-2)Man(a1-6)]Man(b1-4)GlcNAc(b1-4)[Fuc(a1-6)]GlcNAc
# Outline: as §1
# [35] = target: Fuc(a1-2)[Gal(a1-3)]Gal(b1-4)GlcNAc(b1-3)GalNAc
# Outline: as §1
# [36] = target: Fuc(a1-2)[Gal(a1-3)]Gal(b1-4)GlcNAc(b1-6)GalNAc
# Outline: as §1
# [37] = target: Fuc(a1-2)[Gal(a1-3)]Gal(b1-4)[Fuc(a1-3)]Glc
# Outline: as §1
# [38] = target: Fuc(a1-2)[Gal(a1-3)]Gal(b1-4)[Fuc(a1-3)]GlcNAc
# Outline: as §1
# [39] = target: Fuc(a1-2)[Gal(a1-3)]Gal(b1-4)[Fuc(a1-3)]GlcNAc(b1-3)GalNAc
# Outline: as §1
# [40] = target: Fuc(a1-2)[Gal(a1-4)]Gal(b1-4)GalNAc
# Outline: as §1
# [41] = target: Fuc(a1-2)[Gal(a1-4)]Gal(b1-4)GlcNAc
# Outline: as §1
# [42] = target: Fuc(a1-2)[GalNAc(a1-3)]Gal
# Outline: as §1
binder,measurement,setting,value
B1,glycan array binding signal (z-score),[1],-0.217
same,glycan array binding signal (z-score),[2],0.005
same,glycan array binding signal (z-score),[3],-0.279
same,glycan array binding signal (z-score),[4],0.041
same,glycan array binding signal (z-score),[5],-0.001
same,glycan array binding signal (z-score),[6],-0.128
same,glycan array binding signal (z-score),[7],0.002
same,glycan array binding signal (z-score),[8],-0.167
same,glycan array binding signal (z-score),[9],-0.583
same,glycan array binding signal (z-score),[10],-0.587
same,glycan array binding signal (z-score),[11],-0.134
same,glycan array binding signal (z-score),[12],0.025
same,glycan array binding signal (z-score),[13],0.956
same,glycan array binding signal (z-score),[14],-0.171
same,glycan array binding signal (z-score),[15],-0.183
same,glycan array binding signal (z-score),[16],0.11
same,glycan array binding signal (z-score),[17],-0.2
same,glycan array binding signal (z-score),[18],-0.241
same,glycan array binding signal (z-score),[19],-0.286
same,glycan array binding signal (z-score),[20],-0.144
same,glycan array binding signal (z-score),Fuc(a1-2)Gal6S(b1-4)Glc,0.05
same,glycan array binding signal (z-score),[21],0.211
same,glycan array binding signal (z-score),[22],0.546
same,glycan array binding signal (z-score),Fuc(a1-2)GlcNAc,8.41
same,glycan array binding signal (z-score),Fuc(a1-2)[Gal(a1-3)]Gal,-0.072
same,glycan array binding signal (z-score),[23],-0.142
same,glycan array binding signal (z-score),[24],-0.247
same,glycan array binding signal (z-score),[25],0.046
same,glycan array binding signal (z-score),[26],-0.283
same,glycan array binding signal (z-score),[27],-0.167
same,glycan array binding signal (z-score),[28],-0.242
same,glycan array binding signal (z-score),[29],-0.176
same,glycan array binding signal (z-score),[30],-0.037
same,glycan array binding signal (z-score),[31],-0.106
same,glycan array binding signal (z-score),[32],-0.236
same,glycan array binding signal (z-score),[33],-0.141
same,glycan array binding signal (z-score),[34],-0.136
same,glycan array binding signal (z-score),[35],-0.244
same,glycan array binding signal (z-score),[36],-0.136
same,glycan array binding signal (z-score),[37],-0.099
same,glycan array binding signal (z-score),[38],-0.049
same,glycan array binding signal (z-score),[39],-0.092
same,glycan array binding signal (z-score),[40],-0.425
same,glycan array binding signal (z-score),[41],-0.162
same,glycan array binding signal (z-score),[42],-0.261
